Data published in PubChem BioAssay AID488969 (Vanderbilt High Throughput Screening Facility, 2010).
In all, about 110,000 compounds were measured (“z-score”: median about -0.1, highest 2% from about 2 on). This is one part of the list.

target: Metabotropic glutamate receptor 8 (Rattus norvegicus) (UniProt P70579); assay: mGluR8 Gi/Go-coupled signaling modulation – cell-based, rat, thallium flux, HTS, primary screen (AID 488969); conditions: HEK293 rat mGluR8, GIRK (G protein-gated inwardly rectifying potassium channel) thallium flux, FluoZin2; at 10 µM; stronger effect = higher value; submaximal glutamate (EC20) added with thallium
Sequence of UniProt P70579 (P70579 whole entry, looked up): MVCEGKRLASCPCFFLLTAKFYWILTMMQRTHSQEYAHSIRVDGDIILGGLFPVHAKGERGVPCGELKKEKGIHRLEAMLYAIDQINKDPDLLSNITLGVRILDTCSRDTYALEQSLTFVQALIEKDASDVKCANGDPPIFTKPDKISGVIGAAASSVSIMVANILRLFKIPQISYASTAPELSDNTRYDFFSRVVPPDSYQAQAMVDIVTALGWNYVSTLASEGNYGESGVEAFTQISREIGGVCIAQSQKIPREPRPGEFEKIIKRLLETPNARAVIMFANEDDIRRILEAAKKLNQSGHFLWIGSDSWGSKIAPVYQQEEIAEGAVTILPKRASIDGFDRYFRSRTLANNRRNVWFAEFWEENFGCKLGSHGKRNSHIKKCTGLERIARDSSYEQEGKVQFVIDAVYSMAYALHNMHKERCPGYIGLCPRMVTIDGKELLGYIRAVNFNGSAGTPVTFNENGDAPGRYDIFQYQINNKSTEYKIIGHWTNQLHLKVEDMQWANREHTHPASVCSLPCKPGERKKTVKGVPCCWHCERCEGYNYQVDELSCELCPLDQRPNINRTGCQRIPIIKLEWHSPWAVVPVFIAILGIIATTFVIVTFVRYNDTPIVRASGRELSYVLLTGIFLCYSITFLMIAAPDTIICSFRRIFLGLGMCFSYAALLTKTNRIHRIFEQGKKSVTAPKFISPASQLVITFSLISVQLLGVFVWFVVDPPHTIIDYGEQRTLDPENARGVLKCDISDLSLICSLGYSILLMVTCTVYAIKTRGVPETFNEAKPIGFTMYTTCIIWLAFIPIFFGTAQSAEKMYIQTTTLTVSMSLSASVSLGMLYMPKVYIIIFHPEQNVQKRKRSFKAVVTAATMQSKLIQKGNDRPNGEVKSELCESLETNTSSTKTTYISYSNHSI

Compared with `CC1=C(C(=O)OCC(C)C)C23C(=O)c4ccccc4C2(O1)OC(N)=C3C#N` (stereo unspecified), `CC(=O)Nc1ccc(NC2(C)C(=O)c3ccccc3C2=O)cc1` is higher in z-score: -1.58 for the first, -0.426 for the second.

Compared with `CCCOc1ccccc1C1CC(=O)Nc2cc3c(cc21)OCO3` (stereo unspecified), `CCOc1ccc(/C=N/OCC(=O)NCc2ccc3c(c2)OCO3)cc1OC` is higher in z-score: -0.289 for the first, 0.208 for the second.

First: Cn1c2ccccc2c(=O)c2c(=O)n(C3CCCCC3)c(-c3ccco3)nc21
Second: COc1cccc(-c2nnc3sc(C4CCCCC4)nn23)c1
The z-score of the first is lower: -0.509 for the first, -0.229 for the second.

Compared with `O=C(c1cnccn1)N1CCN(c2ccccc2F)CC1`, `Fc1ccccc1N1CCN(c2cnc3ccccc3n2)CC1` is higher in z-score: -0.267 for the first, 0.211 for the second.

Compared with `C/C(=N\N=C1/NC(=O)C(C)S1)c1ccc([N+](=O)[O-])cc1` (stereo unspecified), `COc1ccc(C(=O)Nc2ccc([N+](=O)[O-])cn2)cc1OC` is lower in z-score: -0.238 for the first, -0.261 for the second.

First: NC(=O)COC(=O)c1cc(S(=O)(=O)N2CCOCC2)ccc1N1CCCCC1
Second: COc1cc(S(=O)(=O)N2CCCC3(CCCCC3)C2)ccc1-n1cnnn1
The z-score of the first is lower: -0.0501 for the first, 0.577 for the second.

First: CC(=O)c1ccc(N2CCN(C(=O)CCCn3c(=S)[nH]c4cc5c(cc4c3=O)OCO5)CC2)cc1
Second: CCOC(=O)N1CCN(C(=O)c2ccc(-n3c(=S)[nH]c4ccccc4c3=O)cc2)CC1
The z-score of the first is higher: 2.56 for the first, -0.193 for the second.

Compared with `CCc1c(C)sc(NC(=O)c2ccco2)c1C(=O)N1CCOCC1`, `CCc1c(C)sc(NC(=O)c2cc(-c3ccco3)on2)c1C#N` is lower in z-score: 1.29 for the first, 0.805 for the second.

First: COc1ccc(S(=O)(=O)Nc2ccc(Cl)cn2)c(C)c1C
Second: CC(=O)c1cc(C#N)c(Oc2ccc(Cl)cc2Cl)nc1C
The z-score of the first is lower: -0.798 for the first, 0.172 for the second.

Going from `Cc1csc(NC(=O)c2cc3c(s2)CCCC3)n1` to `O=C(NCCO)c1ccc2[nH]c3c(c2c1)CCCC3`, the z-score rises from -0.76 to -0.308.

First: CC(=O)N1C(C)c2ccccc2C(C)(C)CC12CCCCC2 (stereo unspecified)
Second: CC1CCCCN1C(=O)C12CCC(C)(/C(=N/O)C1)C2(C)C (stereo unspecified)
The z-score of the first is lower: -0.408 for the first, 0.611 for the second.

Going from `CCOC(=O)N1CCC(NC(=O)CS(=O)(=O)Cc2nc(-c3ccc(C)cc3)oc2C)CC1` to `CCCN1CCC(NC(=O)Nc2ccccc2C(=O)OC)CC1`, the z-score falls from -0.301 to -0.336.

Going from `Cc1cc(C)c(C)c(S(=O)(=O)NCc2ccco2)c1C` to `N#C/C(=C/c1ccc(CNS(=O)(=O)c2ccccc2)o1)C(N)=O`, the z-score falls from 0.675 to -1.94.

Compared with `Cc1ccc(OCC(=O)Nc2ccccc2-c2ccccc2NC(=O)COc2ccc(C)cc2)cc1`, `C=CCN(CC=C)S(=O)(=O)c1ccc(NC(=S)NC(=O)c2ccc(-c3ccccc3)cc2)cc1` is lower in z-score: 0.0801 for the first, -0.107 for the second.

Compared with `Oc1c(C=Nc2cccnc2)sc2ccccc12`, `O=C(Nc1ccccc1)O/N=C/c1ccccc1Cl` is higher in z-score: -0.313 for the first, 0.549 for the second.

First: CC1Oc2ccccc2N(CC(=O)NCCc2ccccc2)C1=O (stereo unspecified)
Second: CN(c1ccc(C(=O)NCCSCc2ccccc2)cc1)S(=O)(=O)c1ccccc1
The z-score of the first is higher: 2.08 for the first, -0.384 for the second.

Compared with `Cc1ccc(-n2ncc3c(=O)n(CC#N)cnc32)cc1C`, `O=C(NC(=S)Nn1cnc2c(cnn2-c2ccccc2)c1=O)c1ccc(Cl)cc1` is lower in z-score: 0.124 for the first, 0.0584 for the second.

First: C=CCC(O)(CCN1CCCCC1)c1ccccc1 (stereo unspecified)
Second: OCCNc1nc2ccccc2n1CCN1CCCCC1
The z-score of the first is higher: 0.382 for the first, -0.0913 for the second.

Going from `COc1ccc(-c2coc3cc4oc(=O)cc(-c5ccccc5)c4cc23)cc1F` to `COc1cccc(CNc2cccc3cccnc23)c1O`, the z-score rises from -0.146 to 0.672.

First: COc1ccccc1-c1cc(C(F)(F)F)nc(S(=O)(=O)CCCC(=O)N2CCOCC2)n1
Second: Cc1onc(-c2ccccc2Cl)c1C(=O)N1C=CC(C(F)(F)F)=NCC1
The z-score of the first is lower: -0.331 for the first, 0.16 for the second.

First: O=C(CSc1ccc(-c2nc3ccccc3[nH]2)cn1)Nc1ccc(S(=O)(=O)NC2CC2)cc1
Second: COc1ccc(/C=N/NC(=O)CCc2nc3ccccc3[nH]2)cc1
The z-score of the first is higher: -0.167 for the first, -0.286 for the second.

Going from `CCN(CC)C(=O)Nc1c(C)n(C)n(-c2ccccc2)c1=O` to `Cc1c(NCc2nc3ccccc3[nH]2)c(=O)n(-c2ccccc2)n1C`, the z-score rises from -0.0603 to 0.0464.

Going from `Cc1ccc(S(=O)(=O)CC2CSc3nnc(C)c(=O)n32)cc1` (stereo unspecified) to `Cc1ccc(S(=O)(=O)N2CCC(C(=O)Nc3nnc(C45CC6CC(CC(C6)C4)C5)s3)CC2)cc1`, the z-score rises from 0.000957 to 0.299.

Compared with `Cn1cnnc1SCC(=O)N1CCc2ccccc21`, `Cn1c(SCC(=O)N/N=C/c2ccc([N+](=O)[O-])s2)nnc1-c1ccc(Cl)cc1` is lower in z-score: 0.101 for the first, -0.571 for the second.

Compared with `O=C(CNc1n[nH]c(=O)[nH]c1=O)N/N=C/c1cccnc1`, `CCC1C(=O)N=C(SCC(=O)Nc2ccc(C(=O)OC)cc2)NC1=O` (stereo unspecified) is higher in z-score: -0.114 for the first, 0.238 for the second.

First: O=C(N/N=C/c1ccco1)C1CC1(c1ccccc1)c1ccccc1 (stereo unspecified)
Second: c1ccc(CN2CCN(c3ncnc4c3[nH]c3ccccc34)CC2)cc1
The z-score of the first is higher: 1.35 for the first, -0.972 for the second.

First: CNc1oc(-c2ccccc2Cl)nc1C#N
Second: COc1ccc(N2CCN(c3oc(-c4ccc(OC)c(OC)c4)nc3C#N)CC2)cc1
The z-score of the first is lower: -0.539 for the first, 0.693 for the second.

Going from `O=C(NCCc1ccc(Cl)cc1)Nc1cccc(Cl)c1` to `Cc1cc(NC(=O)CSc2nccn2-c2ccc(Cl)cc2)no1`, the z-score falls from 0.529 to 0.0698.

Compared with `O=C(COC(=O)C1CCCN1C(=O)c1cccs1)Nc1ccc2c(c1)OCO2` (stereo unspecified), `O=C(CSc1ncnc2c1oc1ccccc12)Nc1ccc2c(c1)OCCO2` is lower in z-score: 0.489 for the first, 0.128 for the second.

Going from `CCC(C)(C)NC(=O)Cc1ccc(C)cc1` to `COC(=O)c1ccc(NC(=O)c2ccc(C)cc2)o1`, the z-score falls from 0.28 to -0.057.

First: CC1CCN(S(=O)(=O)c2cccc(-c3cn4cc(Cl)ccc4n3)c2)CC1
Second: Cc1cccc(NC(=S)N2CCN(c3cc(C)ccc3C)CC2)c1
The z-score of the first is lower: -0.297 for the first, 0.0636 for the second.

Going from `Cc1cc(C)n(-c2cc(N3CCN(C(=O)c4ccc(C(C)(C)C)cc4)CC3)ccc2[N+](=O)[O-])n1` to `CCC(NC(=O)c1cccc(Cn2nc(C)c([N+](=O)[O-])c2C)c1)c1ccc(C(C)C)cc1` (stereo unspecified), the z-score rises from -0.687 to -0.524.

Compared with `CC(=O)NCc1ccc(-c2csc(N)n2)s1`, `CCOC(=O)c1cnn(Cc2ccccc2)c1N` is lower in z-score: 0.445 for the first, -0.0923 for the second.

Going from `CCC(C)(C)C1CCc2c(sc(NC(=O)c3ccoc3C)c2C(N)=O)C1` (stereo unspecified) to `COC(=O)CNC(=O)C1CCN(C(=O)OCc2ccccc2)CC1`, the z-score rises from -0.179 to -0.0732.

Compared with `Cc1cc(OCCN2CCCC2)ccc1C(C)C`, `COc1ccc([N+](=O)[O-])cc1NC1CCCCC1` is lower in z-score: 1.23 for the first, -0.0473 for the second.

Compound `CCCCOc1ccc(C(C)NC(=O)CCS(=O)(=O)Cc2ccccc2F)cc1` (stereo unspecified) has a z-score of -0.246.
